Paper PMC7819943, “Rice protein-binding microarrays: a tool to detect cis-acting elements near promoter regions in rice”
This is one part of the list.

Target: T1, OsWOX13 (Oryza sativa, UniProt Q5QMM3 1-267)
T1 sequence: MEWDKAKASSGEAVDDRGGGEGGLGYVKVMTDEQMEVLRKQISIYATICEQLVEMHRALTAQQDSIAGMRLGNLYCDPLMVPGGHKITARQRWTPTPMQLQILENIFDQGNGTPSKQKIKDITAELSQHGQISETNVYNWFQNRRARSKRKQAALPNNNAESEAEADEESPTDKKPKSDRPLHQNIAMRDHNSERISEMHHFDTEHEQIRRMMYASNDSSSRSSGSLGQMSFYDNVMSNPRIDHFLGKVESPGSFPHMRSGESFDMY
Experiment: protein-binding microarray (RPBM); PBS, 2% BSA, 51.3 ng/ul salmon testes DNA, 50 uM zinc acetate, 200 nM TF, 25 C, 1 h; high values mean tight binding
Details: protein: recombinant; tags: N-terminal polyhistidine and DsRed monomer fusion (pET32a); label: CyDye5-dUTP incorporated in the synthesized complementary strand; 3' TTTTT single-stranded linker to array surface; dsDNA, one strand shown
Outline: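 Polyhistidine-tagged DsRed fusions of transcription factors, joined at the N-terminus, were expressed in E. coli BL21-CodonPlus and isolated on Ni–NTA. They were incubated at 200 nM for 1 h at 25 °C on a custom Agilent array, double-stranded and BSA-blocked, in PBS with 2% BSA, salmon testes DNA and 50 µM zinc acetate. The binding signal is per-feature fluorescence intensity (arbitrary units) read on an Axon 4000B scanner after washing.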

Sequence	binding signal
ATGACTCATACTCTTAATTGTTATCTGTGTAAGTTGTGACCGGAGTCACCTAGTGCAG	4460 fluorescence intensity (a.u.)
AGATTAATTAGGCTTAATAGATTCGTCTACGTTTAATACTCGGAGTCACCTAGTGCAG	20900 fluorescence intensity (a.u.)
AAATTGATGAAACGGTGTATGGTGAAGACGCTGATTCGTCCGGAGTCACCTAGTGCAG	5080 fluorescence intensity (a.u.)
ATAATGATAATGACTAATTACTCCTCCGTTTCATACAGGTCGGAGTCACCTAGTGCAG	27600 fluorescence intensity (a.u.)
TAGAAGTTTGATTGAAATTGAAACGATATGATGGAAAAGTCGGAGTCACCTAGTGCAG	44500 fluorescence intensity (a.u.)
TGGGATAAATCACTTCTTCAATTAGGCCCGGTTTAGTTCTCGGAGTCACCTAGTGCAG	12500 fluorescence intensity (a.u.)
AAAACCTTATCAATCATTCAAGGGATCTTTTCCCCTTTGACGGAGTCACCTAGTGCAG	12900 fluorescence intensity (a.u.)
GGGTGATATAAATTAGGAGGTGATAATAATTATTTCTTGGCGGAGTCACCTAGTGCAG	26700 fluorescence intensity (a.u.)
ACGCATCAACAGTGGAGGGAGGGGAGGGGAGGAGCTTCCCCGGAGTCACCTAGTGCAG	3270 fluorescence intensity (a.u.)
GATGGTGATTTGCCACTCGATACTAGCGACTATTGACTTGCGGAGTCACCTAGTGCAG	15200 fluorescence intensity (a.u.)
CCTACCGCTATTTGCTTGATTAACAGCCGAATCATACCATCGGAGTCACCTAGTGCAG	4380 fluorescence intensity (a.u.)
TTGATGATTGGTGGAGGAAAAGGAACTTACTCCTTCCGTTCGGAGTCACCTAGTGCAG	49400 fluorescence intensity (a.u.)
GCTTTACTCAATCAGCAGATACAGCTCATTTACAGCAAAGCGGAGTCACCTAGTGCAG	6660 fluorescence intensity (a.u.)
GGCTTATTATGTTTAGAAGATTAGAAAATCTACACAACATCGGAGTCACCTAGTGCAG	3360 fluorescence intensity (a.u.)
ATGGTTGATTGCTTGATCAAGGCATGCATCACTTGCTATGCGGAGTCACCTAGTGCAG	55800 fluorescence intensity (a.u.)
CTAATCCCAGATTGCTAGTGATTAGCACGTAGATACATAGCGGAGTCACCTAGTGCAG	21700 fluorescence intensity (a.u.)
CCACTCATAATTTAATTCGTCTATAATAAGATAGGTTTCTCGGAGTCACCTAGTGCAG	6270 fluorescence intensity (a.u.)
ATTGGACCTGAACACTGCTAATTAATTGGTATAAGTCATCCGGAGTCACCTAGTGCAG	8360 fluorescence intensity (a.u.)
TTGGCTACATCGATTGATTGATCAGAGAGAGATATAACGACGGAGTCACCTAGTGCAG	21500 fluorescence intensity (a.u.)
CAAGATAATTACAAGTTTATAAAACAAACTACTACAGGGACGGAGTCACCTAGTGCAG	27200 fluorescence intensity (a.u.)
GAAGATTTAATTGCAACGAATTTAATGGTGCAATCGGATCCGGAGTCACCTAGTGCAG	23200 fluorescence intensity (a.u.)

Sequence	binding signal
GTGTTTTCTATCAACAATCAACGACAGTTAGTTTTCTTTTCGGAGTCACCTAGTGCAG	5000 fluorescence intensity (a.u.)
ATTGATTATACTCGCCAGTCCTTCAGAGAAACCACGCCACCGGAGTCACCTAGTGCAG	22400 fluorescence intensity (a.u.)
GAACAATCAATTTAATAGCCCCACACTGCGACGCAACTCTCGGAGTCACCTAGTGCAG	14400 fluorescence intensity (a.u.)
AAGGAAATTGGTGCTGATGTATGTGAAATGTGGGGATTTGCGGAGTCACCTAGTGCAG	19100 fluorescence intensity (a.u.)
CTCTGAATCAAACTTCTCTAATTATATCTAGGCTTTGTTCCGGAGTCACCTAGTGCAG	3300 fluorescence intensity (a.u.)
CTAATAGGATAAATCAATTGGTAACCTTGTATGTCCATAACGGAGTCACCTAGTGCAG	13700 fluorescence intensity (a.u.)
TTGCCAATTATGATTGGAGATTTACAAGTAGACTTCAATACGGAGTCACCTAGTGCAG	18500 fluorescence intensity (a.u.)
CCAACCTTAATTAATTAAGCTAAATTTCACGCTAATCCTACGGAGTCACCTAGTGCAG	44500 fluorescence intensity (a.u.)
ACGATGATTATGTACGATTTACGGTTGTGTATTTCATAGTCGGAGTCACCTAGTGCAG	29800 fluorescence intensity (a.u.)
CACAGTGATATAACTCATTAATCTTACTTATTAATTTCTTCGGAGTCACCTAGTGCAG	3330 fluorescence intensity (a.u.)
CAATGATTTAGGCCAGGGGTTCCACTCAAAGGCCCAATAGCGGAGTCACCTAGTGCAG	4020 fluorescence intensity (a.u.)
GGTACATGAACAATGGTTGATTGCTGGGGCTGAGCAGGGCCGGAGTCACCTAGTGCAG	8960 fluorescence intensity (a.u.)
ATTAGTAAATATTAAATTAATCATAAGAAAATGTTTCACTCGGAGTCACCTAGTGCAG	4860 fluorescence intensity (a.u.)
TGATTAGTGATTAGTGCTAATCATAATTAGTGCCTACAAGCGGAGTCACCTAGTGCAG	49200 fluorescence intensity (a.u.)
ACGTCATTATGAATGTAAATTGCACACAGGTAAATACAATCGGAGTCACCTAGTGCAG	3510 fluorescence intensity (a.u.)
CCAATCAACCAAGTAACAATGTAAACGGAGGTTTAACCACCGGAGTCACCTAGTGCAG	3140 fluorescence intensity (a.u.)
AATAATTAAGCATCACTTTCATAAGTATACAGAAGAGAAACGGAGTCACCTAGTGCAG	6100 fluorescence intensity (a.u.)
TTGTAATAATTAAAACTTAATTAATCATACATTAATACCACGGAGTCACCTAGTGCAG	17100 fluorescence intensity (a.u.)
TTATTACTACTTAATTAGTGTGTAACTAACGTGTACATAACGGAGTCACCTAGTGCAG	12000 fluorescence intensity (a.u.)
TTGATAGGCATATTTCAATCTAGCACCCTATCATCTTAATCGGAGTCACCTAGTGCAG	18700 fluorescence intensity (a.u.)
ATTCAAATTTGAAAAGTAAAATTTGGCTGAAATCTGATCGCGGAGTCACCTAGTGCAG	4260 fluorescence intensity (a.u.)

Sequence	binding signal
TGTTGACTAATGCATGTTTCTCTCATCGATCTTATAGGTTCGGAGTCACCTAGTGCAG	4620 fluorescence intensity (a.u.)
CTTAATTGTTTAGATATTATGTTTCTTTTCATACTTTGCTCGGAGTCACCTAGTGCAG	44100 fluorescence intensity (a.u.)
GAATTATTACTGATGAGATGGAAAATCAGAAAACGAAGAACGGAGTCACCTAGTGCAG	3740 fluorescence intensity (a.u.)
TACTGATGAGCCACTGACGGGTGGGGCCAGTTGACTGACACGGAGTCACCTAGTGCAG	6930 fluorescence intensity (a.u.)
CAAAATTGAACTTACTTGAACCTCACGACAGTTCAAACATCGGAGTCACCTAGTGCAG	6410 fluorescence intensity (a.u.)
CTTAAAATTAACACATCATGTATACTAGCTAACTTAATAGCGGAGTCACCTAGTGCAG	12000 fluorescence intensity (a.u.)
ATTTATAATTAGATGAAACGTACTTTGGTACCATGAAACTCGGAGTCACCTAGTGCAG	15700 fluorescence intensity (a.u.)
GTGACAAATAAAATATACGATGACTGCTTCGCCACTGGACCGGAGTCACCTAGTGCAG	3240 fluorescence intensity (a.u.)
TATCATATTGCTTGATTGCTGTGTAGCCTGTGTTTACCTTCGGAGTCACCTAGTGCAG	13300 fluorescence intensity (a.u.)
CGAAGTTGATAGGCGACGAAGCCCACAGCCCACCTATTGGCGGAGTCACCTAGTGCAG	5170 fluorescence intensity (a.u.)
CCTAATTATCTCTCTCTCCCTACCACGTCGTCTTCTCTTCCGGAGTCACCTAGTGCAG	25200 fluorescence intensity (a.u.)
GGTTAAATGACCATTTTATCCAAGTAACTTGTATAATAAGCGGAGTCACCTAGTGCAG	5900 fluorescence intensity (a.u.)
ATTTAATTTCTCCTTGGTCTTTGTGACAATAGTAATATGTCGGAGTCACCTAGTGCAG	9870 fluorescence intensity (a.u.)
AAATCAAATTAGACTGACATATTTTGATATTGGCTAAATCCGGAGTCACCTAGTGCAG	27900 fluorescence intensity (a.u.)
AAACATAATTTTAAGGACTACCGGAAAGATAAGGAGGTCGCGGAGTCACCTAGTGCAG	4040 fluorescence intensity (a.u.)
GAAATATTGATAATTTTATAAACTACTGACCGTGGAATCGCGGAGTCACCTAGTGCAG	12200 fluorescence intensity (a.u.)
GCTTGTCCTAATTTTAAGTCAAATTAATGTTGTGTTTACTCGGAGTCACCTAGTGCAG	8680 fluorescence intensity (a.u.)
GAGATTGACACACAACCGATAAAATAATATGATTATAGAACGGAGTCACCTAGTGCAG	19500 fluorescence intensity (a.u.)
ATATATATAATTAGGATTGTTATATGCATAGGTTTGCATTCGGAGTCACCTAGTGCAG	18400 fluorescence intensity (a.u.)
CCACCTACAAATCAATCTTAATAAGTTCATAAGGTTCATACGGAGTCACCTAGTGCAG	3980 fluorescence intensity (a.u.)
GCCAATGACTTGACAAGTTGACATTGTATGGTCAAAGCCCCGGAGTCACCTAGTGCAG	5510 fluorescence intensity (a.u.)

Sequence	binding signal
TGTGGATTGAATCAGCTCAGAATTACTCCGCGGTGCCCCACGGAGTCACCTAGTGCAG	14400 fluorescence intensity (a.u.)
GCCCTGATTAACCATTCAAAAGTGGGCTATGTGGCCTTACCGGAGTCACCTAGTGCAG	23500 fluorescence intensity (a.u.)
ACTAATGGATTCTCTCTTAAATCTTTGCAAAGTACTAGAGCGGAGTCACCTAGTGCAG	7730 fluorescence intensity (a.u.)
AGTGAAATTAAAATTACTAAATTACAAAGGAGAGCACATGCGGAGTCACCTAGTGCAG	21700 fluorescence intensity (a.u.)
TCAGTTGATCAATCAATTAAGGAACTAGTCCACCAATCAACGGAGTCACCTAGTGCAG	34900 fluorescence intensity (a.u.)
TTTAAAAGCTTGATTGAGATTAGCGTGCAAAACACACGTTCGGAGTCACCTAGTGCAG	33000 fluorescence intensity (a.u.)
AAGCTATTAGATTGGCTATAGATGAATTGAAGTTAGTAGTCGGAGTCACCTAGTGCAG	26100 fluorescence intensity (a.u.)
GTATCATCAATCAGAGAGTGTAGTAGTAGCTAAGCTAGCTCGGAGTCACCTAGTGCAG	12800 fluorescence intensity (a.u.)
AGTGTAATGGATTGTAATGGATGACCACATATTGATATAGCGGAGTCACCTAGTGCAG	21000 fluorescence intensity (a.u.)
TACTGATTTGTTCTTTGATTTCTCATCTGATCACATGCCTCGGAGTCACCTAGTGCAG	36500 fluorescence intensity (a.u.)
TCATCATCATCATCATTATTAAAGTAAATTTCAGAAAACTCGGAGTCACCTAGTGCAG	3740 fluorescence intensity (a.u.)
CCACTACTACGCGATTGATTTTCCTAGACTCTTTGTTTCCCGGAGTCACCTAGTGCAG	7830 fluorescence intensity (a.u.)
AATGATAAAATTTTAATTAATCATATGCTAATGACTTACTCGGAGTCACCTAGTGCAG	24100 fluorescence intensity (a.u.)
AACAAAACTAATTGTCAAACTTATATCAGAAATCAACAGCCGGAGTCACCTAGTGCAG	13500 fluorescence intensity (a.u.)
CTGAAATTTATCATTCATAAAGGTGGAGTTTATGAAACATCGGAGTCACCTAGTGCAG	10200 fluorescence intensity (a.u.)
GGCAATCAATCAACCAATCACCAGCTTACAATTCGGCCACCGGAGTCACCTAGTGCAG	59300 fluorescence intensity (a.u.)
TGTAATTTGACTCGTTTGATGGTTTTGGAGGACGGTTTCTCGGAGTCACCTAGTGCAG	20200 fluorescence intensity (a.u.)
TTGTGATTGTAGTAATTATGTACTAGTAACGAAAATTCTGCGGAGTCACCTAGTGCAG	40100 fluorescence intensity (a.u.)
ATTTAATAAGCAATTAACGAAAATGGTAAATATCCCTAAACGGAGTCACCTAGTGCAG	5710 fluorescence intensity (a.u.)
ACGCGCGAGCTATATTTGATTGGGCTAGATGGGCCTCGCTCGGAGTCACCTAGTGCAG	4200 fluorescence intensity (a.u.)
CTTTGACGAATTCTGCCTCAGCGAGTATGCCCATTGGCTGCGGAGTCACCTAGTGCAG	3300 fluorescence intensity (a.u.)
